# Assay results: the supplement of paper PMC8728848
# Some of the results follow.
# B1: ABA (Agaricus bisporus), Q00022 (protein)
# chain: MTYTISIRVYQTTPKGFFRPVERTNWKYANGGTWDEVRGEYVLTMGGSGTSGSLRFVSSDTDESFVATFGVHNYKRWCDIVTNLTNEQTALVINQEYYGVPIRDQARENQLTSYNVANAKGRRFAIEYTVTEGDNLKANLIIG
# Assays:
# Experiment in all cases: glycan array binding signal (z-score within array); higher = stronger binding
# Details in all cases: glycan notation: IUPAC condensed, linker removed
# [1] = biological target: Fuc(a1-2)Gal(b1-4)GlcNAc(b1-3)Gal(b1-4)GlcNAc(b1-2)Man(a1-3)[Fuc(a1-2)Gal(b1-4)GlcNAc(b1-3)Gal(b1-4)GlcNAc(b1-2)Man(a1-6)]Man(b1-4)GlcNAc(b1-4)GlcNAc
# In short: (§1)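 From the Consortium for Functional Glycomics database, 3228 arrays were curated, keeping only those whose protein sequence was available. Binding is given as a within-array Z-score averaged across arrays sharing a protein sequence and across linkers. Negative Z-scores can be read as non-binding.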
# [2] = biological target: Fuc(a1-2)Gal(b1-4)GlcNAc(b1-3)Gal(b1-4)GlcNAc(b1-3)Gal(b1-4)GlcNAc
# In short: as §1
# [3] = biological target: Fuc(a1-2)Gal(b1-4)GlcNAc(b1-3)GalNAc
# In short: as §1
# [4] = biological target: Fuc(a1-2)Gal(b1-4)GlcNAc(b1-3)[Fuc(a1-2)Gal(b1-4)GlcNAc(b1-6)]GalNAc
# In short: as §1
# [5] = biological target: Fuc(a1-2)Gal(b1-4)GlcNAc(b1-3)[Fuc(a1-3)[Gal(b1-4)]GlcNAc(b1-6)]Gal(b1-4)Glc
# In short: as §1
# [6] = biological target: Fuc(a1-2)Gal(b1-4)GlcNAc(b1-6)GalNAc
# In short: as §1
# [7] = biological target: Fuc(a1-2)Gal(b1-4)GlcNAc6S
# In short: as §1
# [8] = biological target: Fuc(a1-2)Gal(b1-4)[Fuc(a1-3)]GlcNAc
# In short: as §1
# [9] = biological target: Fuc(a1-2)Gal(b1-4)[Fuc(a1-3)]GlcNAc(b1-2)Man(a1-3)[Fuc(a1-2)Gal(b1-4)[Fuc(a1-3)]GlcNAc(b1-2)Man(a1-6)]Man(b1-4)GlcNAc(b1-4)[Fuc(a1-6)]GlcNAc
# In short: as §1
# [10] = biological target: Fuc(a1-2)Gal(b1-4)[Fuc(a1-3)]GlcNAc(b1-2)[Fuc(a1-2)Gal(b1-4)[Fuc(a1-3)]GlcNAc(b1-4)]Man(a1-3)[Fuc(a1-2)Gal(b1-4)[Fuc(a1-3)]GlcNAc(b1-2)Man(a1-6)]Man(b1-4)GlcNAc(b1-4)GlcNAc
# In short: as §1
# [11] = biological target: Fuc(a1-2)Gal(b1-4)[Fuc(a1-3)]GlcNAc(b1-3)Gal(b1-4)[Fuc(a1-3)]GlcNAc
# In short: as §1
# [12] = biological target: Fuc(a1-2)Gal(b1-4)[Fuc(a1-3)]GlcNAc(b1-3)Gal(b1-4)[Fuc(a1-3)]GlcNAc(b1-3)Gal(b1-4)[Fuc(a1-3)]GlcNAc
# In short: as §1
# [13] = biological target: Fuc(a1-2)Gal(b1-4)[Fuc(a1-3)]GlcNAc(b1-3)GalNAc
# In short: as §1
# [14] = biological target: Fuc(a1-2)Gal(b1-4)[Fuc(a1-3)]GlcNAc(b1-3)[Neu5Ac(a2-6)Gal(b1-4)GlcNAc(b1-6)]Gal(b1-4)Glc
# In short: as §1
# [15] = biological target: Fuc(a1-2)Gal3S(b1-4)GlcNAc
# In short: as §1
# [16] = biological target: Fuc(a1-2)Gal6S(b1-3)GlcNAc
# In short: as §1
# [17] = biological target: Fuc(a1-2)Gal6S(b1-3)GlcNAc6S
# In short: as §1
# Fuc(a1-2)Gal6S(b1-4)Glc = biological target: Fuc(a1-2)Gal6S(b1-4)Glc
# In short: as §1
# [18] = biological target: Fuc(a1-2)Gal6S(b1-4)Glc6S
# In short: as §1
# Fuc(a1-2)GlcNAc = biological target: Fuc(a1-2)GlcNAc
# In short: as §1
# Fuc(a1-2)[Gal(a1-3)]Gal = biological target: Fuc(a1-2)[Gal(a1-3)]Gal
# In short: as §1
# [19] = biological target: Fuc(a1-2)[Gal(a1-3)]Gal(b1-3)GalNAc
# In short: as §1
# [20] = biological target: Fuc(a1-2)[Gal(a1-3)]Gal(b1-3)GalNAc(b1-3)Gal(a1-4)Gal(b1-4)Glc
# In short: as §1
# [21] = biological target: Fuc(a1-2)[Gal(a1-3)]Gal(b1-3)GlcNAc
# In short: as §1
# [22] = biological target: Fuc(a1-2)[Gal(a1-3)]Gal(b1-3)GlcNAc(b1-2)Man(a1-3)[Fuc(a1-2)[Gal(a1-3)]Gal(b1-3)GlcNAc(b1-2)Man(a1-6)]Man(b1-4)GlcNAc(b1-4)GlcNAc
# In short: as §1
# [23] = biological target: Fuc(a1-2)[Gal(a1-3)]Gal(b1-3)GlcNAc(b1-2)Man(a1-3)[Fuc(a1-2)[Gal(a1-3)]Gal(b1-3)GlcNAc(b1-2)Man(a1-6)]Man(b1-4)GlcNAc(b1-4)[Fuc(a1-6)]GlcNAc
# In short: as §1
# [24] = biological target: Fuc(a1-2)[Gal(a1-3)]Gal(b1-3)GlcNAc(b1-3)GalNAc
# In short: as §1
# [25] = biological target: Fuc(a1-2)[Gal(a1-3)]Gal(b1-3)GlcNAc(b1-6)GalNAc
# In short: as §1
# [26] = biological target: Fuc(a1-2)[Gal(a1-3)]Gal(b1-4)Glc
# In short: as §1
# [27] = biological target: Fuc(a1-2)[Gal(a1-3)]Gal(b1-4)GlcNAc
# In short: as §1
binder,measurement,setting,value
B1,glycan array binding signal (z-score),[1],-0.157
same,glycan array binding signal (z-score),[2],-0.211
same,glycan array binding signal (z-score),[3],-0.137
same,glycan array binding signal (z-score),[4],-0.179
same,glycan array binding signal (z-score),[5],-0.233
same,glycan array binding signal (z-score),[6],-0.156
same,glycan array binding signal (z-score),[7],-0.289
same,glycan array binding signal (z-score),[8],-0.203
same,glycan array binding signal (z-score),[9],-0.137
same,glycan array binding signal (z-score),[10],0.231
same,glycan array binding signal (z-score),[11],-0.248
same,glycan array binding signal (z-score),[12],-0.17
same,glycan array binding signal (z-score),[13],-0.202
same,glycan array binding signal (z-score),[14],-0.228
same,glycan array binding signal (z-score),[15],-0.269
same,glycan array binding signal (z-score),[16],-0.261
same,glycan array binding signal (z-score),[17],-0.092
same,glycan array binding signal (z-score),Fuc(a1-2)Gal6S(b1-4)Glc,-0.214
same,glycan array binding signal (z-score),[18],-0.227
same,glycan array binding signal (z-score),Fuc(a1-2)GlcNAc,-0.152
same,glycan array binding signal (z-score),Fuc(a1-2)[Gal(a1-3)]Gal,-0.223
same,glycan array binding signal (z-score),[19],-0.239
same,glycan array binding signal (z-score),[20],-0.235
same,glycan array binding signal (z-score),[21],-0.018
same,glycan array binding signal (z-score),[22],-0.265
same,glycan array binding signal (z-score),[23],0.005
same,glycan array binding signal (z-score),[24],-0.212
same,glycan array binding signal (z-score),[25],-0.221
same,glycan array binding signal (z-score),[26],-0.122
same,glycan array binding signal (z-score),[27],-0.22
